According to paper PMC4336329 (PLoS ONE, 2015):
Out of some 310,000 compounds screened, about 2,200 (0.71%) showed an effect of 50% or more. Effects have a minus sign here. This is one part of the list.

These molecules were tested against human ether-à-go-go-related gene (hERG) potassium channel (human, UniProt Q12809) (assay: primary screen, population patch clamp on CHO cells stably expressing hERG).
Sequence of human ether-à-go-go-related gene (hERG) potassium channel (Q12809 whole entry, looked up): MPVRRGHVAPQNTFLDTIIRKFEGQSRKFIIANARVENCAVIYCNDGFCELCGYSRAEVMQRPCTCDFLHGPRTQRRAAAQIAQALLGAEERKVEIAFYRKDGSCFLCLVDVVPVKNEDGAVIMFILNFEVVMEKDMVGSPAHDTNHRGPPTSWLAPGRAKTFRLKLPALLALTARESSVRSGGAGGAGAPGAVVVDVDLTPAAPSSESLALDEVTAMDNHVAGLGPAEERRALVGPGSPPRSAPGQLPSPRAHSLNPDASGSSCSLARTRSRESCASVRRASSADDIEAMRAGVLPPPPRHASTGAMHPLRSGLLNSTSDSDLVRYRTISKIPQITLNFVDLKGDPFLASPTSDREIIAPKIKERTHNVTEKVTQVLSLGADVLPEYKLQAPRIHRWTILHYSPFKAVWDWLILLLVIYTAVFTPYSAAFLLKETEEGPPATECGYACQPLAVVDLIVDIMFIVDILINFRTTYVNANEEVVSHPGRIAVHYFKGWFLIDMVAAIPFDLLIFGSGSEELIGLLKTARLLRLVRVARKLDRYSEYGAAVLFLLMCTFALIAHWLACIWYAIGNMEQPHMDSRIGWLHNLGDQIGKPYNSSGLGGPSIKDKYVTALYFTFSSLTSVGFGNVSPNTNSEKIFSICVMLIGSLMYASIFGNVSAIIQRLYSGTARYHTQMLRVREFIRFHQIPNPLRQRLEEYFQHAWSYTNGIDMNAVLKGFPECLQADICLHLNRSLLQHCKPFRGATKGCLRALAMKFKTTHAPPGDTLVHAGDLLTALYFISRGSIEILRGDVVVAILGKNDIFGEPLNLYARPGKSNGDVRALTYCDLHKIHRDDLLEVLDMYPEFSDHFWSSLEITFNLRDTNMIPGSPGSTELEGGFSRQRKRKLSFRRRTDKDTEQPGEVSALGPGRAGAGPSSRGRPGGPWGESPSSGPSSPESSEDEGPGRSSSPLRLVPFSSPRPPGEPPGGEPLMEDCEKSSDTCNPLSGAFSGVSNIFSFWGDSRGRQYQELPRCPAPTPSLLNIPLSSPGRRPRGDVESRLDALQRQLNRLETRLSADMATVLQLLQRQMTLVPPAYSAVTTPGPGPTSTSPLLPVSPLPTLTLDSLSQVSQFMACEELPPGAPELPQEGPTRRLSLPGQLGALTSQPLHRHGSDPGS

| Compound | hERG current change (%, negative = inhibition) at 1uM [%] |
| --- | --- |
| COc1ccc(-c2nc3nc(C)c(Cc4ccccc4)c(=O)n3[nH]2)cc1 | 3.12 |
| COc1ccc(-c2nnc3n2CCCCC3)cc1 | 10.5 |
| O=C1CC(Cc2ccccc2)C(=O)N1c1ccccn1 (stereo not shown) | 14.9 |
| CSc1nsc(SCC(=O)Nc2ccc(NC(C)=O)cc2)n1 | 11.7 |
| CCn1c(=N)c(S(=O)(=O)c2ccc(C)cc2)cc2c(=O)n3ccccc3nc21 | -6.55 |
| Cc1ccc(S(=O)(=O)N2CCCC2c2cccnc2)cc1 (stereo not shown) | 0.107 |
| Cc1ccccc1NS(=O)(=O)c1ccc(OCC(=O)NCc2cccnc2)cc1 | 4.02 |
| COC(=O)c1cccc(C23CC4(C2)[C@H](CN(C)[C@@H]4c2ccccc2)C3c2ccc(C(F)(F)F)cc2)c1 (stereo partly shown) | 14.4 |
| CCCN1C2CCCC1CC(NC(=O)c1ccc(OC)cc1)C2 (stereo not shown) | 1.04 |
| CCOC(=O)c1c(C)[nH]c(C)c1S(=O)(=O)NCC1CCN(Cc2cccc(F)c2)CC1 | 14.2 |
| COc1ccc(CNC(=O)C2CCC(CNc3c(N4CCOCC4)c(=O)c3=O)CC2)cc1 (stereo not shown) | 8.97 |
| Cc1nc2sc(C(c3ccccc3)N3CCN(C(=O)c4ccco4)CC3)c(O)n2n1 (stereo not shown) | 13 |
| NC(=O)CC(NC(=O)Cc1cccc2ccccc12)c1ccc(NCC2CC2)c([N+](=O)[O-])c1 (stereo not shown) | 5.37 |
| COc1ccccc1NC(=O)C1=C(C)Nc2ncnn2C1c1ccccc1C (stereo not shown) | 5.96 |
| O=C(CNC(=O)Cc1ccccc1)NCC(=O)OCC(=O)c1ccc(F)cc1 | 4.62 |
| Cc1ccc(S(=O)(=O)NNC(=S)Nc2c(Cl)cccc2Cl)cc1 | 15.8 |
| COc1ccc(C(=O)NC2CCCCC2)cc1S(=O)(=O)N1CCOCC1 | 6.58 |
| COc1ccc(C(=O)NNC2=NCCCCC2)cc1 | -2.19 |
| Cc1sc2ncnc(OCc3nnc(-c4cccs4)o3)c2c1C | 9.51 |
| O=C(NCC(c1cccs1)N1CCOCC1)c1ccco1 (stereo not shown) | 11.7 |
| Cc1ccc(-n2nnnc2SCC(=O)Nc2sccc2C#N)cc1 | 15.5 |
| Cc1ccccc1NC(=S)NC1(C)CCS(=O)(=O)C1 (stereo not shown) | 11.9 |

| Compound | hERG current change (%, negative = inhibition) at 1uM [%] |
| --- | --- |
| Cc1ccc(C)c(S(=O)(=O)N2CCN(C(=O)CCC(=O)NCc3ccc(Cl)cc3)CC2)c1 | 1.26 |
| C#CCOCCOCCOCCNc1nc(N2CCN(C(=O)[C@H](C(C)C)n3cc(CCO)nn3)CC2)nc(N2CCN(C(=O)[C@H]([C@@H](C)CC)n3cc(CCC[NH+]=C(N)N)nn3)CC2)n1.[Cl-] | 14.3 |
| COc1ccccc1CC(=O)Nc1ccc([N+](=O)[O-])cc1O | 13.6 |
| FC(F)(F)c1ccccc1NC(=S)Nc1cccc(Cl)c1 | 10.7 |
| CCn1c(CCNC(=O)c2ccc(OC)cc2)nnc1SCC(=O)Nc1ccccc1F | 9.18 |
| N#CC1=C(N)Oc2cc(N)ccc2C1c1cc(Br)cs1 (stereo not shown) | -2.94 |
| CCCC(=O)NC(NC(=S)Nc1ccc(S(N)(=O)=O)cc1)C(Cl)(Cl)Cl (stereo not shown) | 3.2 |
| O=C(CSCc1ccc([N+](=O)[O-])cc1)Nc1ccccc1C(=O)O | 15.4 |
| CC1CCC(NC(=O)Cn2cc3c(n2)CCCC3)CC1 (stereo not shown) | 14.2 |
| Cc1[nH]c2ccccc2c1C(=O)COC(=O)C1CC(=O)N(Cc2ccccc2)C1 (stereo not shown) | 9.57 |
| C=CCNC(=O)c1ccccc1NC(=O)c1ccc(Cl)c(S(=O)(=O)Nc2cc(C)ccc2C)c1 | 14.2 |
| O=C(Cn1nnc(-c2ccc(N3CCOCC3)cc2)n1)OC1CCCCC1 | -4.08 |
| CCn1nnc2cc(C(=O)O)ccc21 | 12.5 |
| COc1ccccc1OCC(=O)Nc1c2c(nn1-c1ccc(F)cc1)CS(=O)(=O)C2 | 8.27 |
| Cc1ccccc1NC(=S)NCc1ccc2c(c1)cc(C)n2C | 5.37 |
| CN(C)c1ccc(Nc2ncnc3ccc(Br)cc23)cc1 | 14.8 |
| CCCC(=O)N1CCN(c2ccc(NC(=O)c3ccc(Br)o3)cc2)CC1 | 2.26 |
| CCOc1ccc(C(=O)NCC(=O)N2CCC(C)CC2)cc1OCC | 7.39 |
| CCOc1cc(S(=O)(=O)N2CCN(c3ccc(F)cc3)CC2)c(OCC)cc1-n1cnnn1 | -0.931 |
| CCOc1ncccc1C(=O)N1CCN(C(=O)c2ccccc2)CC1 | 18.7 |
| Cc1nc(N2CCN(Cc3ccc4c(c3)OCO4)CC2)c2cc(-c3ccccc3)sc2n1 | 10.9 |
